# Assay results: the supplement of paper PMC8512760
# This is one part of the list. Single values are uncertain, as repeats are few or missing.
# Legend:
# Assay in all cases: cell viability relative to vehicle (% of vehicle); basal-like triple-negative breast cancer lines; higher = less cytotoxic
# Details in all cases: 10 µM; 72 h
# [1] = tested on: HCC-1143
# [2] = tested on: HCC-1187
# [3] = tested on: MDA-468
# [4] = tested on: SUM-149
# 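Further: stably firefly luciferase-GFP labeled cells in 96-well plates, viability read as luciferase photon flux after d-luciferin addition, treated wells normalized to vehicle wells, single-dose high-throughput screen.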
smiles,measurement,setting,value
O=C(NCCO[N+](=O)[O-])c1cccnc1 [Nicorandil],cell viability,[1],110
same,cell viability,[2],97.1
same,cell viability,[3],101
same,cell viability,[4],110
N[C@@H](Cc1cc(I)c(Oc2cc(I)c(O)c(I)c2)c(I)c1)C(=O)O [L-Thyroxine],cell viability,[1],76.8
same,cell viability,[2],110
same,cell viability,[3],90.6
same,cell viability,[4],86.5
Cn1c(=O)c2[nH]cnc2n(C)c1=O.Cn1c(=O)c2[nH]cnc2n(C)c1=O.NCCN [Aminophylline],cell viability,[1],85.8
same,cell viability,[2],83.3
same,cell viability,[3],74.5
same,cell viability,[4],86.7
CN1CCC(=C2c3ccccc3CCn3c(C=O)cnc32)CC1 [Alcaftadine],cell viability,[1],101
same,cell viability,[2],102
same,cell viability,[3],113
same,cell viability,[4],121
CC1(C)CCC(C)(C)c2cc(NC(=O)c3ccc(C(=O)O)cc3)ccc21 [Tamibarotene],cell viability,[1],90.9
same,cell viability,[2],123
same,cell viability,[3],93.9
same,cell viability,[4],122
Cl.Nc1ncnc2nc[nH]c12 [Adenine HCl],cell viability,[1],123
same,cell viability,[2],95
same,cell viability,[3],117
same,cell viability,[4],128
CCCc1nc(C)c2c(=O)nc(-c3cc(S(=O)(=O)N4CCN(CC)CC4)ccc3OCC)[nH]n12 [Vardenafil],cell viability,[1],85.8
same,cell viability,[2],80.4
same,cell viability,[3],97.6
same,cell viability,[4],139
COc1c(N2CC3CCCNC3C2)c(F)cc2c(=O)c(C(=O)O)cn(C3CC3)c12.Cl (centres undefined) [Moxifloxacin HCl],cell viability,[1],88
same,cell viability,[2],86.7
same,cell viability,[3],91.1
same,cell viability,[4],139
CC12C=CC(=O)C=C1CCC1C3CC(O)C(O)(C(=O)CO)C3(C)CC(O)C12F (centres undefined) [Triamcinolone],cell viability,[1],75.8
same,cell viability,[2],87.6
same,cell viability,[3],155
same,cell viability,[4],185
CCCCCCCCCCCCCCCCOP(=O)([O-])OCC[N+](C)(C)C [Miltefosine],cell viability,[1],78.7
same,cell viability,[2],91
same,cell viability,[3],97.2
same,cell viability,[4],94
CCCCc1nc(Cl)c(CO)n1Cc1ccc(-c2ccccc2-c2nnn[n-]2)cc1.[K+] [Losartan Potassium (DuP 753)],cell viability,[1],85.3
same,cell viability,[2],89.4
same,cell viability,[3],78.9
same,cell viability,[4],109
CCCN(CCC)CCc1cccc2c1CC(=O)N2.Cl [Ropinirole HCl],cell viability,[1],80.3
same,cell viability,[2],85.3
same,cell viability,[3],114
same,cell viability,[4],119
CCCN1CCCCC1C(=O)Nc1c(C)cccc1C.Cl.O (centres undefined) [Ropivacaine hydrochloride monohydrate],cell viability,[1],74.2
same,cell viability,[2],77.4
same,cell viability,[3],105
same,cell viability,[4],105
NC(=O)C(CCC(F)(F)F)N(Cc1ccc(-c2ncon2)cc1F)S(=O)(=O)c1ccc(Cl)cc1 (centres undefined),cell viability,[1],76.3
same,cell viability,[2],91.5
same,cell viability,[3],103
same,cell viability,[4],111
CC(C)(C)c1nc(-c2cccc(NS(=O)(=O)c3c(F)cccc3F)c2F)c(-c2ccnc(N)n2)s1,cell viability,[1],97.7
same,cell viability,[2],115
same,cell viability,[3],108
same,cell viability,[4],117
CC(=O)Oc1ccccc1C(=O)O [Aspirin (Acetylsalicylic acid)],cell viability,[1],96.8
same,cell viability,[2],78.6
same,cell viability,[3],92.7
same,cell viability,[4],119
CC(=O)Nc1ncc([N+](=O)[O-])s1 [Nithiamide],cell viability,[1],70.2
same,cell viability,[2],83.2
same,cell viability,[3],112
same,cell viability,[4],88.4
COC1C(O)CC(=O)OC(C)CC=CC=CC(OC2CCC(N(C)C)C(C)O2)C(C)CC(CC=O)C1OC1OC(C)C(OC2CC(C)(O)C(O)C(C)O2)C(N(C)C)C1O (centres undefined) [Spiramycin],cell viability,[1],102
same,cell viability,[2],112
same,cell viability,[3],102
same,cell viability,[4],116
COC(=O)C1=C(C)NC(C)=C(C(=O)OCC(C)C)C1c1ccccc1[N+](=O)[O-] (centres undefined) [Nisoldipine],cell viability,[1],81.7
same,cell viability,[2],74.7
same,cell viability,[3],97
same,cell viability,[4],103
COc1cc2c(cc1Cc1cccc(Cl)c1F)c(=O)c(C(=O)O)cn2C(CO)C(C)C (centres undefined) [Elvitegravir (GS-9137)],cell viability,[1],52.5
same,cell viability,[2],49.7
same,cell viability,[3],52.2
same,cell viability,[4],90.5
"O=C(CCCCCCC(=O)Nc1ccccc1)NO [Vorinostat (SAHA, MK0683)]",cell viability,[1],58.8
same,cell viability,[2],59.6
same,cell viability,[3],87.6
same,cell viability,[4],6.98
CC(C)C1C(=O)NC(CCCN=C(N)N)C(=O)NCC(=O)NC(CC(=O)O)C(=O)NC(Cc2ccccc2)C(=O)N1C (centres undefined) [Cilengitide],cell viability,[1],85.1
same,cell viability,[2],80.9
same,cell viability,[3],105
same,cell viability,[4],118
"CCCS(=O)(=O)Nc1ccc(F)c(C(=O)c2c[nH]c3ncc(-c4ccc(Cl)cc4)cc23)c1F [Vemurafenib (PLX4032, RG7204)]",cell viability,[1],91.7
same,cell viability,[2],93.8
same,cell viability,[3],50.8
same,cell viability,[4],106
COCCCOc1ccnc(C[S+]([O-])c2nc3ccccc3[nH]2)c1C (centres undefined) [Rabeprazole],cell viability,[1],139
same,cell viability,[2],97.9
same,cell viability,[3],146
same,cell viability,[4],155
COC(=O)C1C2CC3c4[nH]c5cc(OC)ccc5c4CCN3CC2CC(OC(=O)c2cc(OC)c(OC)c(OC)c2)C1OC.Cl (centres undefined) [Reserpine hydrochloride],cell viability,[1],100
same,cell viability,[2],83.5
same,cell viability,[3],122
same,cell viability,[4],116
Cc1nnc(NS(=O)(=O)c2ccc(N)cc2)s1 [Sulfamethizole],cell viability,[1],78.2
same,cell viability,[2],83.6
same,cell viability,[3],100
same,cell viability,[4],96.5
